Results as given in PMC12136788.
The list shows a part of the results.

T1: UNK ZnF1-6 (called full-length) (human, UniProt Q9C0B0 30-357)
T1 sequence: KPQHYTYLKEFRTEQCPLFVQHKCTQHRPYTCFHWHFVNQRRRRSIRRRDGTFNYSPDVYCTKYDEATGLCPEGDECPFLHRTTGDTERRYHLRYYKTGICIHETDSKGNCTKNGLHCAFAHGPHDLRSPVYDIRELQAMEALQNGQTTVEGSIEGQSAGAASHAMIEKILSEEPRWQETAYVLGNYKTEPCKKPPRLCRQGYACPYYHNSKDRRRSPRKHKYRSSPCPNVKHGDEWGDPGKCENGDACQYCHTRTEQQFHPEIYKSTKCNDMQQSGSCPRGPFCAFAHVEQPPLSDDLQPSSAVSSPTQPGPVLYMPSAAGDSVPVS

B1: ENSG00000142156:stop:overlap|stop_codon|ENSG00000142156|stop_codon|NA|stop_codon (ssRNA)
RNA: GGGAGUUCUACAGUCCGACGAUCACCAGGCCCUGCUCCGCGGUGUCUUCCACCAGACAGUCUCCAGGAAGGUGGCGCUGGGCUAGCCCACCCUGCACGCCGGCACCAAACCCUGUCCUCCCACCCCUCCCCACUCAUCACUAACAACAGAGGAUUGAGCAUCA
B2: chr14:103519669:103519777:-|3pUTR|ENSG00000166165|unk|FALSE|unique (ssRNA)
RNA: GGGAGUUCUACAGUCCGACGAUCCUGAUGUUCGCCGUCUGGCGAGCCCUUAGCCUUGCUGUAGAGACUUCCGUCACCCUUGGUAGAGUUUAUUUUUUUGAUGGCUAAGAUACUGCUGAUGCUGAAAUAAACUAGGGUUUUGGCCAACAGAGGAUUGAGCAUCA
B3: chr9:113264340:113264441:+|3pUTR|ENSG00000136868|msi1|FALSE|unique (ssRNA)
RNA: GGGAGUUCUACAGUCCGACGAUCAAAGUCUGCAUUUGAUAUAAUGCCUUAAUUACUGGGUCUACAAUUAAUGUUGACUGUUUUAGAUUGUAAGCUCCUGGAGAGCAGUAUUGCUGUAGUAGGAAUGUUUUAACAGUGUCAUAUCAACAGAGGAUUGAGCAUCA
B4: chr15:69271217:69271318:+|3pUTR|ENSG00000138604|msi1|FALSE|bound_elsewhere (ssRNA)
RNA: GGGAGUUCUACAGUCCGACGAUCGCAACAGCAAGUUGAUUUCUUGUGAUCCCAGAAUUUUCUAAGAGGAUGAGUUGAAUCUAUAGCAGCAUUGUCAGUACAGACCAGUGGUUCUCAAACUUUAAAAUGCCUCAGCAUCACUUGCAACAGAGGAUUGAGCAUCA
B5: chr12:71585298:71585408:+|3pUTR|ENSG00000139292|unk|FALSE|unique (ssRNA)
RNA: GGGAGUUCUACAGUCCGACGAUCUUGUUAACUCACUCAUAUUGAGAUCAUUUUUAGAGAUACCAGGUUUUAUGUAUCAGCACUAGAUGGUUCCACCCUCAUGGGAUAAAACUGCUUACAAGUAUUUUGAAAGAAAAACUGACCCAACAGAGGAUUGAGCAUCA
B6: ENSG00000146918:stop:overlap|stop_codon|ENSG00000146918|stop_codon|NA|stop_codon (ssRNA)
RNA: GGGAGUUCUACAGUCCGACGAUCGGGCUCUAACUCCUGGACUCCUGGACUCAAUCUAUCCUUCUGCCUCAGUCCCAAUUGGCUAGGACUGCAGGCACACACCACCAGACCCAGCUAAUGUAAUUUCUAUCUAUAUGUGUCUUUCAACAGAGGAUUGAGCAUCA
B7: ENSG00000198589:be:win_6501|CDS|ENSG00000198589|bound_else_gene|NA|bound_elsewhere_windowed (ssRNA)
RNA: GGGAGUUCUACAGUCCGACGAUCCUAUCUACCUCGUGUUGGCGUUGGAACAAGUUUUGGAUUGCCUCAAACCAGACGUAUUUCAUUAGCUAGUCCACGUCAGCUUUUUAAGGCUUCUAAUAUGACCCAGCGAUGGCAACACAGCAACAGAGGAUUGAGCAUCA
B8: chr1:169124931:169125019:+|5pUTR_CDS|ENSG00000143153|msi1_unk|total|mutant (ssRNA)
RNA: GGGAGUUCUACAGUCCGACGAUCGAAAUUUCCUUUCGUCCUAAUGAUCCCAAGAGCUAUGAGGCAUAUGUACUGAACACCGUCCGGUUCCUGGAAAAGUACAAAGAUUCAGCCCAGAGGGAUGACAUGAUUUUUGAAGAUUGUCAACAGAGGAUUGAGCAUCA
B9: ENSG00000198589:be:win_2801|CDS|ENSG00000198589|bound_else_gene|NA|bound_elsewhere_windowed (ssRNA)
RNA: GGGAGUUCUACAGUCCGACGAUCAUAUAUUUAGGGAACAGCAAGGAAAAGUUGAUGAAGAAAUAGGGCUGUGUUCUUCAACUUCAGUUCAAGCAGCCUCUGGCAUUAGAAGGGAUAUUAAUGUUUCAGUAGGAUCCCAGCAACCAACAGAGGAUUGAGCAUCA
B10: chr11:59152587:59152688:+|CDS|ENSG00000166801|msi1|total|mutant (ssRNA)
RNA: GGGAGUUCUACAGUCCGACGAUCAUUGAAAACUUCAAGAAAAAAAUGAAAGUAAAAAAUGGGGAAACAUUAUUUGAAUUGCACCGAACAACGUUUGGGAAAGUAACAAAAAAUUCUUCUUCGAUUAAAGCCGUGAAACUUCUUCAACAGAGGAUUGAGCAUCA
B11: chr4:124666837:124666938:-|3pUTR|ENSG00000151458|msi1|total|mutant (ssRNA)
RNA: GGGAGUUCUACAGUCCGACGAUCAAUGAUUUCUUGGCAGUUUAAAAAAAAUAUUUUACCGCCGUUCCGGGAGCUGCUUUAAGCCGUUUAAAUCUGGAUUUUCCCAGCCGAAUUCUUCUCAUCUCUGGCUAAACAUGUCAGAACCAACAGAGGAUUGAGCAUCA
B12: chr1:86745841:86745942:+|3pUTR|ENSG00000097033|msi1|FALSE|bound_elsewhere (ssRNA)
RNA: GGGAGUUCUACAGUCCGACGAUCAUGGUGCAGUUCAGAAUUGUUUAAAUAAGCUCUGUGCCACUGAGCUUAAUCUGAAAGUAUAGUGACAUGUGAAGGAUGCACAUAUGAAUGAAAAACUAAAAUAAUUGUAGGCUCUUCUAUCAACAGAGGAUUGAGCAUCA
B13: chr12:26337790:26337891:-|3pUTR|ENSG00000123104|unk|FALSE|unique (ssRNA)
RNA: GGGAGUUCUACAGUCCGACGAUCAAGAUCUAUGUAGAAUAUAAAGGAAGCCUGAACCAAUCCUUCCACAUACUGUUAAGAUGUAGACUUGGAACAAAGCUGUUGGGACCCAGAGCAAUGAAUUUUUGAACUGAAGCUACUGGUCAACAGAGGAUUGAGCAUCA
B14: chrX:150470157:150470258:+|CDS|ENSG00000013619|unk|total|mutant (ssRNA)
RNA: GGGAGUUCUACAGUCCGACGAUCUCCAAAUGAGCCCGAUCUUGAGAAGAUACUGGGGACGAAGCCAGAAGAGCCACUGGUUUCCGAUCAUCCCCAGGCAACCCUAAGCACAACUCCCAAGCCUUCGGUUCAGAUGUCACACUUCAACAGAGGAUUGAGCAUCA

molecular target: T1, UNK ZnF1-6 (called full-length); experiment: nsRBNS (natural sequence RNA bind-n-seq); RBNS binding buffer (assumed for nsRBNS): 25 mM Tris pH 7.5, 150 mM KCl, 3 mM MgCl2, 0.01% Triton X-100, 500 ug/ml BSA, 20 U/ml SUPERase-In, 4 C; UNK is unkempt and MSI1 is Musashi-1; names of the RNAs are library labels; protein concentration not given here; high values mean tight binding

Binder	binding signal [enrichment R]
B1	0.516
B2	0.722
B3	1.72
B4	0.349
B5	0.631
B6	0.78
B7	0.514
B8	0.521
B9	0.932
B10	0.333
B11	0.266
B12	0.496
B13	0.446
B14	0.511
